# Source: PMC4336329 (PLoS ONE, 2015)
# In all, about 310,000 compounds went through this assay and about 2,200 (0.71%) showed an effect of 50% or more. Effects have a minus sign here. The list shows a part of the results.
# Molecular target: human ether-à-go-go-related gene (hERG) potassium channel (human, UniProt Q12809)
# Assay: primary screen, population patch clamp on CHO cells stably expressing hERG
# human ether-à-go-go-related gene (hERG) potassium channel, sequence (Q12809 whole entry, looked up): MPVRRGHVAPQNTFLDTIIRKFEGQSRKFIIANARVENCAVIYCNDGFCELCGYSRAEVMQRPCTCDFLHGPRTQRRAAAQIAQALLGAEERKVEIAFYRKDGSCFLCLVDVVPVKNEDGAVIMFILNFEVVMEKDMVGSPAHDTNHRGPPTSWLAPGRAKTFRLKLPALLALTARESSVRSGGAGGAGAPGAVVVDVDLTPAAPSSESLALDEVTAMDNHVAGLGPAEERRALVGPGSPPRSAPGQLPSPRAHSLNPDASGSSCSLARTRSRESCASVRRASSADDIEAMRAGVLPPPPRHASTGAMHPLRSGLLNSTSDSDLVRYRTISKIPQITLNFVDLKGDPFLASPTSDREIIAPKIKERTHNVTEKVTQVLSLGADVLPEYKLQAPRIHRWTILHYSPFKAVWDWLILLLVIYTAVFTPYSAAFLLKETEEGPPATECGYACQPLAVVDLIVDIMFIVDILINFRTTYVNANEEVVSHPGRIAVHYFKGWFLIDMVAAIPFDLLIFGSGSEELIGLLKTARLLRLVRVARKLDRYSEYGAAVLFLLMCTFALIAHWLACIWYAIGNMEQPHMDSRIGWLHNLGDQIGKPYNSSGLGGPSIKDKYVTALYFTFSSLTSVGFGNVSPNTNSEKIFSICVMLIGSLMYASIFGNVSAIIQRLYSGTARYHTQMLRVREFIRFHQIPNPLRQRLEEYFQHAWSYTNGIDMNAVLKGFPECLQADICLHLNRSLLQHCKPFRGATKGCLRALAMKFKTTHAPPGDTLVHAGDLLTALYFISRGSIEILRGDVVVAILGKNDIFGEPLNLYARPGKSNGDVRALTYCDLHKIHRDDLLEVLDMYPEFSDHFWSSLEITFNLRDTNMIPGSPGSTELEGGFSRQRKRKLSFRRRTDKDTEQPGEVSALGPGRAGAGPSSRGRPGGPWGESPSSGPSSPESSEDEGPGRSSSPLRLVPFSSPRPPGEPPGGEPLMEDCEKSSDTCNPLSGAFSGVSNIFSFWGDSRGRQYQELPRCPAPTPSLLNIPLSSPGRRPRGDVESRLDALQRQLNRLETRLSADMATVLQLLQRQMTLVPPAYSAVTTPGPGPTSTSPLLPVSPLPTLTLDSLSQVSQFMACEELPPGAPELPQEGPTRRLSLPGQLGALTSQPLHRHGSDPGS
row,SMILES,"hERG current change (%, negative = inhibition) at 1uM"
1,Clc1ccc2c(N3CCCC3)ccnc2c1,-25.9%
2,ONC=Nc1cccc2nonc12,11.1%
3,Cc1ccc(C2N3CCCN23)cc1 (stereo not drawn),12.5%
4,NS(=O)(=O)c1ccc(CCn2c(=S)[nH]c3ccc(F)cc3c2=O)cc1,9.41%
5,Cc1ccc(CN2CCSCC2)cc1,15.2%
6,FC(F)(F)c1cc(Oc2ccccc2)ncc1-c1nnc(-c2ccccc2Cl)o1,5.61%
7,Cc1cc(C(F)(F)F)nc(SCCN2CCOCC2)c1C#N,5.97%
8,N#CCCn1cc(C(=O)Nc2ccc([N+](=O)[O-])cc2)c(-c2ccccc2)n1,-67.8%
9,CCOC(=O)N1CCN(C(=O)CCc2ccc(S(=O)(=O)NCC(C)C)cc2)CC1,8.99%
10,COC(=O)C1=C(C)OC(N)=C(C#N)C1c1ccccc1 (stereo not drawn),15.9%
11,Cn1c(O)c(N=NC(=O)Cn2ccc(C(F)(F)F)n2)c2ccccc21,16.6%
12,CCc1cccc(NC(=O)COc2ccccc2)c1,16.1%
13,Cc1ccc(-c2nn(Cc3ccccc3)cc2C(=O)N2CCN(c3ccccn3)CC2)cc1,-11.2%
14,O=C(CN1C(=O)c2ccccc2S1(=O)=O)NC1CCCCCC1,0.533%
15,C=CCSc1nc2c(c(=O)[nH]c(=O)n2C)n1CC,3.31%
16,COc1ccc(S(=O)(=O)N2CCN(C/C=C/c3ccccc3)CC2)cc1NC(C)=O,-54.2%
17,COc1cccc(OC)c1C(=O)NNC(=O)c1ccccc1-n1cccc1,10.9%
18,CNC(=O)c1[nH]cnc1C(=O)Nc1ccccn1,10.6%
19,CCC(=O)Nc1c2c(nn1-c1ccc(C)cc1)CS(=O)(=O)C2,10.2%
20,Cc1ccc(CCNC(=O)C2CCCN(c3ncnc4c3nc3n4CCCCC3)C2)cc1 (stereo not drawn),-5.01%
21,O=C(OCc1nnc(-c2ccccc2)o1)c1cc(Cl)ccc1[N+](=O)[O-],15.6%
22,Cc1nc(C)n(CC(O)COc2ccc(C(=O)c3ccccc3)cc2)n1 (stereo not drawn),10.1%
23,COc1ccc(C2C(=O)N(C3CCCCC3)CC(=O)N2CC2COc3ccccc3O2)cc1 (stereo not drawn),-2.08%

row,SMILES,"hERG current change (%, negative = inhibition) at 1uM"
1,COc1cccc(NC(=O)CN(C)C(=O)CCNC(=O)c2ccccc2Cl)c1,5.57%
2,Cc1cc(C)n(CC(=O)N/N=C/c2cccc([N+](=O)[O-])c2)n1,6.82%
3,Cc1ccc(-n2c(CSc3nc(C)cc(C)n3)nnc2SCC(=O)NCc2ccco2)cc1,-4.89%
4,Nc1cc(N)nc(SCC(=O)NNC(=O)Cc2ccccc2)n1,4.14%
5,O=C(O)CCCCc1nc2ccccc2s1,-5.69%
6,CS(=O)(=O)N(CC(=O)NCc1ccccn1)Cc1ccc(Cl)cc1,8.79%
7,CC(C)Cc1cc(C(=O)NCc2cccnc2)no1,16.4%
8,CN1C(=O)C(=Cc2ccc(N3CCOCC3)c([N+](=O)[O-])c2)C(=O)N(C)C1=O,6.9%
9,COc1ccc(CCNC(=O)Cn2cnc3scc(-c4ccccc4)c3c2=O)cc1OC,9.71%
10,O=C(O)Cc1sc(-c2ccc(C(=O)O)cc2)nc1-c1ccccc1,16.5%
11,O=C1C=C(NCc2ccc(Cl)cc2Cl)C2(CCCCC2)O1,6.48%
12,CC(C)C(=O)OCC(=O)NCc1ccccc1Cl,3.5%
13,CS(=O)(=O)c1ccc(Cl)c(NC(=O)C2CC(=O)N(c3ccc4c(c3)OCCO4)C2)c1 (stereo not drawn),6.75%
14,CCOC(=O)CN1CC23C=CC(O2)C(C(=O)Nc2ccc(OCC)cc2)C3C1=O (stereo not drawn),9.33%
15,CCCCCOc1ccc(NC(=O)C(=O)NCC2CCCN2CC)cc1 (stereo not drawn),-11.4%
16,O=S(=O)(c1ccc(Cl)cc1)N1CCCc2ccccc21,11%
17,O=C(O)c1cc(Cl)c(Cl)cc1C(=O)N1CCCC1,1.69%
18,COc1ccc(NS(=O)(=O)c2ccc(NC(=O)c3ccccc3)cc2)nn1,9.87%
19,CC(=O)N1CCc2ccc(S(=O)(=O)N3CCN(C)CC3)cc21,17.6%
20,CCCNC(=O)Nc1ccsc1C(=O)OC,4.02%
21,CCCCC(CC)CN1C(=O)/C(=C/c2ccncc2)SC1=S (stereo not drawn),10%
22,CC1CCCCN1CCNC(=O)c1ccc2c(=O)n(CCc3ccccc3)c(=O)[nH]c2c1 (stereo not drawn),-5.24%
23,O=C(Oc1ccc2ccc(=O)oc2c1)c1cccs1,12%

row,SMILES,"hERG current change (%, negative = inhibition) at 1uM"
1,COc1cc2c(cc1O)C(SC)=NC(C)(C)C2,17.4%
2,CCN(CC(=O)Nc1c(F)cccc1F)C(=O)c1n[nH]c2ccccc12,15%
3,CCCNC(=O)CSC1=N/C(=C/c2ccc(F)cc2)C(=O)N1CC,9.05%
4,CCOC(=O)c1c(C)oc2ccc(NS(=O)(=O)c3ccc4c5c(cccc35)C(=O)N4)cc12,-4.16%
5,CCOc1ccccc1NC(=O)CSc1nc2ccccc2c(=O)n1CC1CCCO1 (stereo not drawn),-35.6%
6,COc1ccc2nc(/N=C/c3c(O)n(-c4cccc(Cl)c4)c(=O)[nH]c3=O)sc2c1,4.11%
7,Cc1ccc(Cc2nnc(SCC(=O)Nc3ccc(C)cc3C)[nH]c2=O)cc1,9.56%
8,CC(/C=N/NC(=O)Cn1cnc2ccccc21)=C\c1ccccc1,3.77%
9,COc1ccc(/C=C2\N=C(SC)N(c3ccccc3OC)C2=O)cc1,8.55%
10,Cc1cc(C)n(-c2nnc3n2N=C(c2c[nH]c4ccccc24)CS3)n1,-1.96%
11,C/C(=N\NC(=O)CNC(=O)c1ccc(Br)cc1)c1ccco1,11.7%
12,O=C(Cn1nc(-c2ccccc2Cl)ccc1=O)Nc1ccccc1-c1ccccc1,4.87%
13,CCCCC(Sc1nc(N)c(NC(=O)c2ccc(OCC)cc2)c(=O)[nH]1)C(=O)O (stereo not drawn),9.47%
14,CCCCCCc1cc2cc(C(=O)Nc3ccc(OC)cc3)c(=O)oc2cc1O,9.87%
15,O=C(Nc1csc([N+](=O)[O-])c1)Nc1c(Cl)cccc1Cl,9.62%
16,O=C(NC(=S)Nc1ccc(S(=O)(=O)N2CCOCC2)cc1)c1ccccc1[N+](=O)[O-],10%
17,CCN(CC)S(=O)(=O)c1cc(Br)c(C)cc1OC,-14.5%
18,Cc1sc(/C=C2\C(=O)ON=C2c2ccccc2)cc1Br,12.4%
19,O=C(O)c1cn(C2CC2)c2cc(N3CCN(S(=O)(=O)c4ccc5c(c4)OCCO5)CC3)c(F)cc2c1=O,15.3%
20,CCOc1cc(/C=C2/SC(=S)N(C)C2=O)ccc1Oc1ccc([N+](=O)[O-])cc1[N+](=O)[O-],13.8%
21,COc1ccc(C(=O)Nc2ccc(OCC(F)(F)C(F)F)c(C(F)(F)F)c2)cc1OC,12.1%
22,Cc1ccc(N2CC(C(=O)NC3=NCCS3)CC2=O)cc1 (stereo not drawn),12.3%
23,COC(=O)Cc1ccc(NC(=O)c2ccc(Br)o2)cc1,4.26%

row,SMILES,"hERG current change (%, negative = inhibition) at 1uM"
1,O=C(NCCN1C(=O)S/C(=C\c2ccc(OC(F)F)cc2)C1=O)[C@@H]1CCCN1C(=O)c1cccs1,-5.87%
2,O=C(Nc1ccc2c(c1)OCCO2)c1cc2sccc2n1Cc1ccccc1,12.5%
3,O=C1CCC(C(=O)NCc2ccc3c(c2)OCO3)N1 (stereo not drawn),-1.18%
4,O=C(O)C1CCCN(C(=O)NCc2ccccc2)C1 (stereo not drawn),9.57%
5,CCC1=Nc2cc(C(=O)NCCCOC)ccc2Sc2ccccc21,0.797%
6,COc1cc(S(=O)(=O)N2CCN(c3ccccc3)CC2)ccc1Cl,15.3%
7,O=C(N/N=C/c1ccc([N+](=O)[O-])o1)c1ccc(O)cc1,13.5%
8,Cl.Fc1ccc(CNC2CN3CCC2CC3)cc1 (stereo not drawn),9.29%
9,S=C(NC1CCCCC1)N1CCc2[nH]c3ccccc3c2C1,13.5%
10,CCN(CC)C(=O)CSc1nnc(CNc2ccc(F)cc2)o1,15.6%
11,Cn1c(SCc2cccc(Br)c2)nnc1-c1ccncc1,6.77%
12,Cn1c2c(c(=O)n(C)c1=O)CN(CC1CCCO1)CN2 (stereo not drawn),7.48%
13,Brc1ccc(CN2C3=NCCCN3c3ccccc32)cc1.Cl,-55.6%
14,NC(N)=NC1=NC(=O)/C(=C/c2ccccc2-n2cccn2)S1,13.3%
15,CCC1=C(OC(=O)N(CC)CC)N2C(=O)OC(=NCCc3c[nH]c4ccccc34)[C@]2(Cc2ccccc2)[C@H]2C1=CC[C@H]1C(=O)N(CC)C(=O)[C@H]12,13.8%
16,Clc1ccccc1C(c1ccccc1)(c1ccccc1)n1ccnc1,9.51%
17,COCCNc1oc(-c2ccccc2Cl)nc1C#N,-5.23%
18,COc1ccc(C2N(c3ccccc3)C(=O)C2(F)F)cc1OC (stereo not drawn),10%
19,O=C(COc1ccc2ccccc2c1)Nc1ccccc1C(=O)O,22.5%
20,C=CCNC(=O)c1ccc([N+](=O)[O-])c(Cl)c1,3.42%
21,Cc1ccc(C)c(Cn2cnc3c(oc4ccccc43)c2=O)c1,8.87%
